Where “and” joins values, the source holds several entries; their conditions need not be identical. Equal values may be shown once. Hit rate of the full screen: of about 410,000 compounds, about 5,000 (1.2%) were called active. Entries that show only a call come without a potency. The inconclusive results got no clear call from the source; some entries with a clear call stand among them for comparison. Calls follow the shape of the dose curve; as a rule, active = well fitted inhibition curve with a large enough effect; inconclusive = small, poorly fitted or top-dose-only effect; inactive = no such curve, though single readings can be large or run the other way. A potency beside an inconclusive call is a rough fit, not a confirmed value.
Assay: qHTS for Inhibitors of TGF-b; also: nearly all actives have a fitted effect of over 65% in size
Conditions: HepG2 CAGA-GFP TGF-b/SMAD3 reporter, GFP fluorescence, 18 h, TGF-beta stimulated, 500 pg/mL final; series mostly up to 46.1 µM
How it was run: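 TGF-beta reporter screen: HEPG2 CAGA-GFP, 1% FBS, 500 pg/mL TGF-beta final, 18 h; per-cell GFP summed per well; curves fitted and categorized by class.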
Potency is read from the fitted curve at half-maximal effect; tags tell the direction and shape of the fitted curve.

| SMILES | Potency |
| --- | --- |
| O=C(Nc1ccc2c(c1)OCO2)C1CCCN1C(=O)OCc1ccccc1 (stereo unspecified) | inactive |
| O=C(O)c1ccccc1NC(=O)C(c1ccccc1)c1ccccc1 | inactive |
| COc1cccc(CC(=O)Nc2nc3c(s2)C(=O)CC(C)(C)C3)c1 | inconclusive: 6.31 µM [inhibitor, single point] |
| COc1ccc(NC(=O)C2(C)CCN2Cc2cccc(OC)c2F)cc1OC (stereo unspecified) | inactive |
| Fc1ccc(-c2csc(Nc3ccccn3)n2)cc1 | inconclusive: 35.5 µM [inhibitor, single point] |
| O=C(Nc1cccnc1)C1CCCN(S(=O)(=O)c2cccc3nsnc23)C1 (stereo unspecified) | inactive |
| Cc1cc(C)n2[nH]c(=O)c(N=Nc3ccc(S(N)(=O)=O)cc3)c2n1 | inactive |
| O=C(/C(=C/c1ccc(Cl)cc1)c1nc2ccccc2[nH]1)c1cccs1 | active: 5.01 µM |
| NC(=O)COC(=O)c1oc2ccccc2c1CSc1ccc(Cl)cc1 | inconclusive: 35.5 µM [inhibitor, single point] |
| CCOC(=O)N1CCN(CC(O)COc2ccccc2[N+](=O)[O-])CC1 (stereo unspecified) | inactive |
| C/C(=N\NS(=O)(=O)c1ccc(C)cc1)c1ccc(Br)s1 | inconclusive: 35.5 µM [inhibitor, single point] |
| COc1ccccc1CN1CC(C(=O)NCCC2=CCCCC2)CCC1=O (stereo unspecified) | inactive |
| CCOc1ccccc1-n1cnc(C#N)c1N | inactive |
| Cc1ccc(C(=O)Nc2cccc(C(F)(F)F)c2)cc1NC(=O)c1nccnc1N | inactive |
| C[C@H](CO)N1C[C@H](C)[C@@H](CN(C)C(=O)Nc2ccc3c(c2)OCO3)Oc2c(NC(=O)Nc3ccccc3)cccc2C1=O | inactive |
| O=C(NCc1ccccc1F)c1ccc(CSc2nc3cccnc3n2Cc2ccccc2)cc1 | inactive |
| CCCCCCCCN1[C@@H](CC(=O)O)c2ccc(C(F)(F)F)cc2S1(=O)=O | inconclusive: 22.4 µM [inhibitor, single point] |
| CC(=O)NC12CC3CC(C1)CC(C(=O)N1CCN(S(=O)(=O)c4ccc([N+](=O)[O-])cc4)CC1)(C3)C2 | inactive |
| Cc1cc(C)cc(NC(=O)CSc2nc3[nH]ncc3c(=O)[nH]2)c1 | inconclusive: 22.4 µM [inhibitor, single point] |
| COc1ccc(NCC(=O)Nc2ccc(Cl)cc2C)c(OC)c1 | inconclusive: 35.5 µM [inhibitor, single point] |
| CC(=O)NC(c1cccs1)c1cc(Br)c2cccnc2c1O (stereo unspecified) | inconclusive: 2.51 µM [inhibitor, full curve, poor fit] |
| Cc1cc(C2N=C(N)Nc3nc4ccccc4n32)c(C)n1-c1ccccc1Cl (stereo unspecified) | active: 11.2 µM |
| Cc1cccc(NC(=O)N(Cc2cc3cc(C)ccc3[nH]c2=O)CC2COCCO2)c1 (stereo unspecified) | inactive |
| O=C1CCCN1c1ccc(S(=O)(=O)N2CCC(c3ccccc3)CC2)cc1 | inconclusive: 2.82 µM [inhibitor, partial curve, poor fit] |
| C=CCc1cccc(/C=N/NC(=O)CNc2cccc3ccccc23)c1O | inconclusive: 35.5 µM [inhibitor, partial curve, poor fit] |
| Cc1ccc(-n2c(O)c(C=NC3CCS(=O)(=O)C3)c3ccccc3c2=O)c(C)c1 (stereo unspecified) | inactive |

| SMILES | Potency |
| --- | --- |
| CCOC(=O)c1sc(NC(=O)c2cc(-c3ccccc3C)nc3ccccc23)c(C#N)c1C | inconclusive: 2.51 µM [inhibitor, full curve, poor fit] |
| Cc1ccc(-n2c(SCc3ccccc3)nc3c([nH]c4ccccc43)c2=O)cc1 | inactive |
| CC(C)(C)OC(=O)N1CCC[C@H]1c1nnc(SCc2ccc(Cl)cc2Cl)o1 | inconclusive: 20 µM [inhibitor, single point] |
| CCOn1c(=O)c(-c2cccs2)[n+]([O-])c2ccccc21 | inactive |
| O=C(O)c1ccc(B(O)O)cc1 | inactive |
| O=C(CSc1nc(-c2ccccc2)c(-c2ccccc2)[nH]1)NCCN1C(=O)CSC1=O | inconclusive: 35.5 µM [inhibitor, single point] |
| Clc1ccccc1Cn1c(/C=C/c2ccco2)nc2ccccc21 | inconclusive: 22.4 µM [inhibitor, single point] |
| O=c1c(O)cccc2cc(O)c(O)c(O)c12 | inconclusive: 20 µM [inhibitor, single point] |
| CCOC(=O)c1c(NC(=O)CN(C)C)sc(C(=O)N(CC)CC)c1C | inactive |
| Cc1cc(C)nc(N/N=C/c2ccco2)n1 | inactive |
| CCCn1c(CN2CCN(C(=O)OCC)CC2)nc2cc(NC(=O)CC)ccc21 | inconclusive: 35.5 µM [inhibitor, single point] |
| Cc1cc(C)n(-c2nc3ccccc3nc2N2CCN(c3cccc(C(F)(F)F)c3)CC2)n1 | inconclusive: 3.55 µM [inhibitor, partial curve, poor fit] |
| CCOc1cccc2sc(N(Cc3cccnc3)C(=O)c3ccc(C#N)cc3)nc12 | inconclusive: 10 µM [inhibitor, partial curve, poor fit] |
| COc1ccc(NC(=O)CC2NCCNC2=O)c(OC)c1 (stereo unspecified) | inactive |
| Cc1c(CC(=O)NCc2ccc(F)cc2)c(=O)oc2cc(O)c(Cl)cc12 | inactive |
| CCCOc1ccc(-c2c(C(=O)N/N=C/c3ccc(OC)cc3)nnn2-c2nonc2N)cc1 | inconclusive: 12.6 µM [inhibitor, single point] |
| CCOC(=O)c1c(NC(=O)C2c3ccccc3Oc3ccccc32)sc(C)c1C | inactive |
| COC(=O)c1cccnc1-n1c(=O)c2cccnc2n(Cc2cccc([N+](=O)[O-])c2)c1=O | inactive |
| Cc1cnc(NC(=O)CSc2nnc(-c3ccc(Cl)cc3Cl)n2N)s1 | inconclusive: 35.5 µM [inhibitor, single point] |
| O=C(CCCn1c(=O)c2cccn2c2ccccc21)NCCc1ccc(Cl)cc1 | inactive |
| OCC1(Cc2ccc(Cl)cc2)CCN(Cc2ccccc2F)CC1 | inactive |
| CSc1nn(Cc2ccc(C)cc2)c(N)c1S(=O)(=O)c1ccccc1 | inconclusive: 22.4 µM [inhibitor, single point] |
| COc1ccc2nc(NC(C)=O)sc2c1 | inconclusive: 10 µM [inhibitor, partial curve] |
| COc1cc(NC(=O)c2csc(N)n2)cc(C(=O)Nc2cccc(C(F)(F)F)c2)c1 | inconclusive: 35.5 µM [inhibitor, single point] and inconclusive: 22.4 µM [inhibitor, single point] |
| CC(C)/C=C/C(=O)N1CCC(N2CCC(C(=O)N3CCOCC3)CC2)CC1 | inactive |
| Cc1cc(NC(=O)CSc2nnc(-c3ccc(O)cc3)o2)no1 | inactive |

| SMILES | Potency |
| --- | --- |
| Cc1ccccc1C(=O)Nc1cc(S(=O)(=O)N2CCOCC2)ccc1N1CCN(C)CC1 | inactive |
| COc1ccccc1C(=O)N1CCN=C1c1ccccc1 | inactive |
| COc1ccc2oc(=O)c(C(=O)N3CCN(c4ccc(C)cc4)CC3)cc2c1 | inconclusive: 11.2 µM [inhibitor, partial curve, poor fit] |
| COc1ccc(-c2cc(C(F)(F)F)nc(NCCc3ccccc3)n2)cc1OC | inactive |
| COc1ccc(C2CC(c3ccc(Br)cc3)=NN2C(=O)CN2CCCC2)cc1 (stereo unspecified) | inconclusive: 0.251 µM [inhibitor, full curve, poor fit] |
| C=C(C)COC(=O)c1ccccc1C(=O)OCC1(C)CO1 (stereo unspecified) | inactive |
| COc1ccc(N2CCN(CC(=O)Nc3ccc(C)cc3Br)CC2)cc1 | inconclusive: 35.5 µM [inhibitor, partial curve, poor fit] |
| CCCOc1ccc(/C=N/NC(=O)C2CCCN2S(=O)(=O)c2ccc(Cl)cc2)cc1 (stereo unspecified) | inconclusive: 25.1 µM [inhibitor, single point] |
| COc1ccccc1N1CCN(C(=O)c2ccc(S(=O)(=O)N3CCCCCC3)cc2)CC1 | inconclusive: 35.5 µM [inhibitor, single point] |
| O=C(Nc1ccc([N+](=O)[O-])cc1)Nc1ccc(OC(F)F)c(Cl)c1 | active: 4.47 µM |
| OCCN(CCO)c1ncnc2c1cnn2-c1ccc(F)cc1 | inactive |
| O=C(CCCCl)OCc1cn(-c2ccc(Cl)cc2)nn1 | inactive |
| CSc1ccc(C2Nc3cccc4cccc(c34)N2)cc1 | inactive |
| CCc1cccc(C)c1NC(=O)CN(C)Cc1ccccc1F | inactive |
| CCOC(=O)c1cnc(-n2nc(C)cc2C)nc1NC1CCCCC1 | inconclusive: 20 µM [inhibitor, partial curve, poor fit] |
| CCOC(=O)N1CCN(C(=S)Nc2ccc(C)cc2C)CC1 | inconclusive: 35.5 µM [inhibitor, single point] |
| CC(=O)c1ccc(N2C(=O)C3C(C2=O)C(C(=O)c2ccc(Cl)cc2)N2CCCC32)cc1 (stereo unspecified) | inactive |
| Cc1ccc(-n2c(Cc3ccccc3)nnc2SCc2nc(-c3cccs3)no2)cc1C | inconclusive: 17.8 µM [inhibitor, single point] |
| CCCCCCCc1ccc(C2NC(=S)NC3=C2C(=O)c2ccccc23)cc1 (stereo unspecified) | inactive |
| CCOc1ccc(C(=O)NC(Cc2ccccc2)C(=O)OC)cc1 (stereo unspecified) | inactive |
| O=C(Nc1ccc(Cl)cc1)C(NS(=O)(=O)c1cccs1)c1ccccc1 (stereo unspecified) | inconclusive: 20 µM [inhibitor, single point] |
| COc1cc(NC(=O)c2ccc(OC)c([N+](=O)[O-])c2)ccc1NC(=O)c1cccs1 | inconclusive: 5.62 µM [inhibitor, single point] |
| Cc1cccc(OCC(=O)Nc2nnc(S(=O)(=O)N3CCc4ccccc43)s2)c1 | inconclusive: 22.4 µM [inhibitor, partial curve, poor fit] |
| Cc1cccc(NS(=O)(=O)c2cccc(C(=O)N3CCN(C/C=C/c4ccccc4)CC3)c2)c1 | inconclusive: 22.4 µM [inhibitor, single point] |

From PubChem BioAssay AID588855 (National Center for Advancing Translational Sciences (NCATS), 2011)
